Out of some 270,000 compounds screened, about 620 (0.23%) were called active. Inconclusive results, whose numbers are uncertain, are shown with a selection of clear calls. Calls come from the whole dose curve; as a rule, active = well fitted inhibition curve with a large enough effect in the polarisation, with a control signal flat (not every such curve was filed as active); inconclusive = small, poorly fitted or top-dose-only effect, or effect the other way, or a change in a side signal; inactive = no such curve, though single readings can be large or run the other way; the % refers to the polarisation. Potencies of inconclusive entries are doubtful fits and often do not repeat. “Side channel” marks fits to a control or component signal instead of the main read-out.
Molecular target: Menin (Homo sapiens) (UniProt O00255)
Chain of UniProt O00255 (O00255 whole entry, looked up): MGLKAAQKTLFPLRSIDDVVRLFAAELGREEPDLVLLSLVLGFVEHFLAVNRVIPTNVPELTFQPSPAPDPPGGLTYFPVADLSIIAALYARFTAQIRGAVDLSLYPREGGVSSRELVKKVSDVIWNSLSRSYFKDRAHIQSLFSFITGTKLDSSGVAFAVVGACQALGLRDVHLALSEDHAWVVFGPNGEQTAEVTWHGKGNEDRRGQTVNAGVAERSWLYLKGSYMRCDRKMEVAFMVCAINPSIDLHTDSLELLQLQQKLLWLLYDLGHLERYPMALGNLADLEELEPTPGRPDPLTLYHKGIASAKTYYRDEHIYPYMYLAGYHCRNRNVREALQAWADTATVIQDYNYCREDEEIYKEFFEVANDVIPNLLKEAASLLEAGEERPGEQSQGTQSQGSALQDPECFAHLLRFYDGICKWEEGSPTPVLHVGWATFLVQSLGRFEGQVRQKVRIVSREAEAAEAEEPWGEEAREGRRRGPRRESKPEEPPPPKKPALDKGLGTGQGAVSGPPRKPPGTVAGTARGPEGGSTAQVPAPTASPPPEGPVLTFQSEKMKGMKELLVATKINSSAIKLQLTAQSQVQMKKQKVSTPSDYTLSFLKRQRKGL
Test: qHTS Assay for Inhibitors Targeting the Menin-MLL Interaction in MLL Related Leukemias: Competition With Texas Red Labeled MLL-derived Mutant Peptide; for FP activity change, negative = inhibition: % of control where 0% means no effect
Details: fluorescence polarization; FP activity change, negative = inhibition: at 61.6 µM (top of the series)
Potency is the fitted concentration of half-maximal effect; tags give direction and shape of the fitted curve or compound fluorescence and quenching.

Potency, inactive:
CCC(NC(C)C)C(O)c1ccc(O)c(O)c1 (centres undefined)

Potency, inconclusive:
CC(=O)c1c(C)[nH]c(C(=O)N2CCCCCC2)c1C 3.98 µM [inhibitor, full curve, poor fit]
CCOC(=O)c1nc(Nc2ccc(Nc3ccccc3)cc2)c2ccccc2n1 12.6 µM [quencher, side channel, partial curve]
COc1cc(-n2nc(C)c3c2OC(N)=C(C#N)C3c2ccccc2)c(Cl)c(Br)c1O (centres undefined) 17.8 µM [quencher, side channel, partial curve]
CN(c1ccccc1)S(=O)(=O)c1cccc(C(=O)NCCc2ccc(O)c(O)c2)c1 35.5 µM [quencher, side channel, single point]
COc1ccc(N(CC(=O)N2CCN(c3ccccc3F)CC2)S(=O)(=O)c2c(C)noc2C)cc1 35.5 µM [fluorescent, side channel, single point]
O=C(Cn1c(=O)oc2cc(S(=O)(=O)N3CCCCCC3)ccc21)NC1CCCCC1 3.55 µM [inhibitor, partial curve]
COC(=O)c1c(NC(C)=O)sc(C(=O)Nc2ccccc2F)c1C 39.8 µM [fluorescent, single point]
Cc1ccc2cc(CN(CCCN(C)C)C(=S)NCc3ccccc3)c(=O)[nH]c2c1C 10 µM [inhibitor, partial curve]
COc1ccc(Sc2ccc(/C=C3\C(=O)NN(c4ccccc4)C3=O)o2)cc1 25.1 µM [quencher, side channel, partial curve]
C[N+](C)(CC#Cc1ccccc1)CC(=O)c1ccc(Cl)cc1 31.6 µM [fluorescent, side channel, single point]
COc1cc([N+](=O)[O-])ccc1NC(=O)Nc1cnccn1 17.8 µM [quencher, side channel, partial curve]
COc1cc(/C=N/NC(=Nc2ccc(C)cc2)c2nc3ccccc3s2)ccc1O 2.24 µM [quencher, side channel, full curve]
O=C(Nc1ccccc1C(=O)O)c1cc(S(=O)(=O)Nc2ccccc2)ccc1Cl 25.1 µM [quencher, side channel, single point]
CSc1nc(N)nc(SCC(=O)C23CC4CC(CC(C4)C2)C3)c1C#N 39.8 µM [inhibitor, single point]
COc1ccc(-c2cc3c(=O)n(CC(=O)Nc4cccc(Cl)c4)nc(C)n3n2)cc1 39.8 µM [fluorescent, side channel, single point]
CN(C)/C=C1/OC(=O)C(C#N)=C1c1ccc(Cl)cc1 28.2 µM [fluorescent, side channel, partial curve]
CS(=O)(=O)N(CC(=O)Nc1c(F)cccc1F)c1ccc(C23CC4CC(CC(C4)C2)C3)cc1 39.8 µM [inhibitor, single point]
Cc1cc(C)c2c(CN3CCN(Cc4ccccc4)CC3)cc(=O)oc2c1 3.98 µM [fluorescent, side channel, partial curve]
O=C1c2ccccc2C(=O)N1Nc1ccc([N+](=O)[O-])cc1[N+](=O)[O-] 35.5 µM [quencher, side channel, single point]
CCOc1ncccc1C(=O)Nc1nc(C(C)(C)C)cs1 3.16 µM [fluorescent, side channel, full curve]
Cc1ccnc(N2CCN(C(=O)CSc3nc4ccccc4nc3N3CCC(C)CC3)CC2)c1 2.51 µM [fluorescent, side channel, full curve, poor fit]
Cc1ccc(-c2nc3cccnc3s2)cc1NS(=O)(=O)c1cccs1 20 µM [quencher, side channel, partial curve]
S=C(NCc1ccccc1)N/N=C/c1cccs1 35.5 µM [quencher, side channel, single point]
COc1cc2ccccc2cc1C(=O)NCC(c1cccs1)N(C)C (centres undefined) 3.55 µM [inhibitor, full curve, poor fit]
COc1ccc(NC(=O)CN(C)Cc2c(F)cccc2Cl)cc1S(=O)(=O)N1CCCCC1 0.708 µM [fluorescent, side channel, full curve, poor fit]
COc1ccccc1CNC(=O)CCS(=O)(=O)c1cccs1 39.8 µM [inhibitor, single point]
O=C(Nc1nc2ccc([N+](=O)[O-])cc2s1)c1ccc(S(=O)(=O)N2CCCc3ccccc32)cc1 3.98 µM [quencher, side channel, full curve]
Cc1cc2n(n1)C(c1c[nH]c3ccccc13)Nc1ccccc1-2 (centres undefined) 17.8 µM [quencher, side channel, partial curve]
CCn1nc(C)cc1-c1nnc(Sc2ncc([N+](=O)[O-])s2)n1C 28.2 µM [quencher, side channel, single point]
COCCNC(=O)/C(C#N)=C1\N=C(NC(=O)c2cccs2)c2ccccc21 14.1 µM [quencher, side channel, partial curve]
O=C(N/N=C/c1ccc(O)c2ncccc12)c1cccc(Br)c1 11.2 µM [quencher, side channel, partial curve]
Cc1ccnc(NC(=O)CCC(=O)N(CC(=O)NCCc2ccccc2)Cc2ccco2)c1 0.631 µM [inhibitor, full curve]
Oc1c(/C=N/Nc2cccc3cccnc23)ccc2ccccc12 5.01 µM [quencher, side channel, partial curve]
CCCCCCC(O)(c1ccc(OC)cc1)C(CN1CCOCC1)c1ccccc1 (centres undefined) 3.16 µM [fluorescent, side channel, full curve]
CC(C)Oc1ccccc1C1CC(=O)Nc2cc3c(cc21)OCO3 (centres undefined) 7.08 µM [inhibitor, full curve]
CCCCCCc1ccc(-c2ncc(N)cn2)cc1 14.1 µM [quencher, side channel, partial curve]
Cc1noc(NS(=O)(=O)c2ccc(NC(=O)Nc3ccc(Cl)c(Cl)c3)cc2)c1C 12.6 µM [quencher, side channel, partial curve]
Cc1ccccc1NC(=O)NC1(C(=O)NCc2ccco2)CCCCC1 14.1 µM [quencher, side channel, partial curve]
COc1cc(C(=O)N/C(=C/c2ccc(F)cc2)C(=O)NC(C(=O)O)c2ccccc2)cc(OC)c1OC (centres undefined) 1 µM [inhibitor, full curve]
Cc1ccc2c(CSc3nc4nc(C)cc(C)n4n3)cc(=O)oc2c1 6.31 µM [inhibitor, single point]
CCOc1ccc(C2=Nn3c(nnc3-c3ccccc3OC)SC2)cc1 3.98 µM [fluorescent, side channel, partial curve]
Cc1ccc(C)n1NC(=O)c1ccccc1O 25.1 µM [quencher, side channel, single point]
Cc1ccc(/C=C/c2nc3sc(C(=O)O)c(C)c3c(=O)[nH]2)cc1[N+](=O)[O-] 12.6 µM [quencher, side channel, partial curve]
COc1ccccc1CN1CCN(Cc2nc(-c3ccccc3)no2)CC1 17.8 µM [fluorescent, side channel, partial curve]
Cn1c(=O)c(-c2cc(Br)ccc2N)nc2ccccc21 35.5 µM [quencher, side channel, single point]
COc1ccc(Cl)cc1C(=O)Nc1ccc(NC(=O)c2ccco2)cc1 39.8 µM [inhibitor, single point]
CCO[C@@H]1OC(C(=O)N2CCCCCCC2)=C[C@H](C2CCCCC2)[C@H]1CCCO 7.94 µM [fluorescent, side channel, partial curve]
COc1ccc2[nH]cc(CCNC(=O)c3ccc([N+](=O)[O-])cc3)c2c1 39.8 µM [quencher, side channel, single point]

FP activity change, negative = inhibition, inactive:
COc1cccc([C@@H]2Oc3ccc(Br)cc3C[C@H]2OC(=O)N[C@H](C)C2CCCCC2)c1 -8.24%
Nc1nc(N2CCN(C(c3ccccc3)c3ccccc3)CC2)n[nH]1 -0.985%
CC(=O)c1cccc(N(C(=O)c2ccco2)C(C(=O)NC2CCCCC2)c2ccc(C)o2)c1 (centres undefined) -2.81%
Cn1c(=O)c2c(ncn2CC(=O)N2CCOCC2)n(C)c1=O -6.04%
COC(=O)[C@H](Cc1ccccc1)NC(=O)O[C@@H]1C(=O)c2ccc(OC)cc2O[C@H]1c1cccc(C(F)(F)F)c1 -11.9%
COC(=O)c1c(NC(=O)c2ccccc2)sc(Cc2ccccc2)c1C 16.5%
CN(C)CCNc1oc(-c2cccc(Cl)c2)nc1C#N -0.582%
Nc1nc(N2CCOCC2)cc(=O)[nH]1 -17.8%
Oc1ccc(Nc2nc(-c3cccnc3)cs2)cc1 -4.6%
COc1ccc(OC)c(/C=N/NC(=O)CNC(=O)c2cccc3ccccc23)c1 -15.3%
